Reference: PubChem BioAssay AID2546 (National Center for Advancing Translational Sciences (NCATS), 2010)
Out of some 310,000 compounds screened, about 11,000 (3.5%) were called active. The inconclusive results got no clear call from the source; some entries with a clear call stand among them for comparison. Calls follow the shape of the dose curve; as a rule, active = well fitted inhibition curve with a large enough effect; inconclusive = small, poorly fitted or top-dose-only effect, or effect the other way; inactive = flat fitted curve, though single readings scatter. No potency is given beside an inconclusive call; the fits are too rough.

Test: VP16 counterscreen qHTS for inhibitors of ROR gamma transcriptional activity;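 also: Gal4-VP16 expression switched on by copper sulfate through the metallothionein promoter; nearly all actives have a fitted effect of over 50% in size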
Conditions: Drosophila S2 Gal4-VP16 UAS-luciferase, luminescence, 20 h; activity, negative = inhibition: at 53.6 µM (top of the series)
% is scaled to controls: 0 for no effect and ±100 for the full control effect; potency is read from the fitted curve at half-maximal effect; tags tell the direction and shape of the fitted curve.

**Q.** With `Cc1nc2ccccc2n1CCOc1ccccc1` as the compound, how does the Potency read?
**A.** Its Potency is inconclusive [inhibitor, single point].

**Q.** For `CCCCCCCCOC(=O)C1=C(C)Nc2nnnn2C1c1cccs1` (stereo not given), which Potency is on record?
**A.** Its Potency is inconclusive [inhibitor, single point].

**Q.** Which Potency does the source give for `CCCCCn1c(=N)c(S(=O)(=O)c2ccc(Br)cc2)cc2c(=O)n3cccc(C)c3nc21` here?
**A.** Its Potency is “inactive”.

**Q.** For `COc1ccccc1-c1nc2cc3ccccc3cc2nc1-c1ccccc1OC`, which Potency is on record?
**A.** Its Potency is “inactive”.

**Q.** With `COc1ccccc1/C=C/C(=O)OCCN1CCOCC1` as the compound, how does the Potency read?
**A.** The Potency was inconclusive [activator, single point].

**Q.** For `CCC(=O)N1CCN(c2ccccc2NC(=O)c2ccc([N+](=O)[O-])o2)CC1`, which Potency is on record?
**A.** Its Potency is inconclusive [inhibitor, single point].

**Q.** With `Cc1c(NC(=O)c2cc(-c3cccs3)on2)c(=O)n(-c2ccccc2)n1C` as the compound, how does the Potency read?
**A.** Its Potency is “inactive”.

**Q.** For `Cc1ccc2[nH]c(-c3ccccc3)cc(=O)c2c1`, which Potency is on record?
**A.** Its Potency is inconclusive [inhibitor, single point].

**Q.** For `CCn1c(=NC(=O)C2COc3ccccc3O2)sc2c(OC)ccc(OC)c21` (stereo not given), which Potency is on record?
**A.** Its Potency is “inactive”.

**Q.** For `Cc1ccc(C(=O)NCCNC(=O)COc2ccc(Cl)cc2)cn1`, which Potency is on record?
**A.** The Potency was “inactive”.

**Q.** For `CCS(=O)(=O)c1ccc(OC)c(N=Nc2ccc(O)c3ncccc23)c1`, which Potency is on record?
**A.** Its Potency is inconclusive [inhibitor, full curve, poor fit].

**Q.** For `Fc1ccccc1NC(=S)NN(Cc1ccccc1)c1ccccc1`, which Potency is on record?
**A.** Its Potency is active: 10 µM.

**Q.** Which Potency does the source give for `Cc1ccc(-c2cnc(NC(=O)CCC(=O)N(C)Cc3ccccc3)n2C)cc1` here?
**A.** The Potency was active: 4.47 µM.

**Q.** For `O=C(C1=C[C@@H](C2CCCCC2)C[C@@H](OCc2ccc(CO)cc2)O1)N1CCN(Cc2ccccc2)CC1`, which Potency is on record?
**A.** Its Potency is active: 12.6 µM.

**Q.** With `N=c1cc(C2(O)CCCCC2)n2c(nc3ccccc32)s1` as the compound, how does the Potency read?
**A.** Its Potency is inconclusive [inhibitor, partial curve].

**Q.** For `CCCC(C(=O)NCCC(C)C)N(Cc1ccccc1)C(=O)c1snc(C(N)=O)c1N` (stereo not given), which Potency is on record?
**A.** Its Potency is “inactive”.

**Q.** With `Cc1ccc(C(=O)CC2C(=O)N(c3ccccc3)C(=S)N2c2ccccc2)cc1` (stereo not given) as the compound, how does the Potency read?
**A.** The Potency was inconclusive [inhibitor, single point].

**Q.** For `O=C(/C(=C(\O)c1ccccc1)c1ncc[nH]1)c1ccccc1`, which Potency is on record?
**A.** Its Potency is inconclusive [inhibitor, single point].

**Q.** Which Potency does the source give for `NC(=S)c1cnn2c(-c3cccc(C(F)(F)F)c3)ccnc12` here?
**A.** Its Potency is active: 10 µM.

**Q.** For `COc1ccc(-c2cc(C)nc3c(-c4ccccc4)cnn23)cc1`, which Potency is on record?
**A.** Its Potency is inconclusive [inhibitor, single point].

**Q.** Which Potency does the source give for `COc1cc2c(cc1NC(=O)Nc1ccc(F)cc1)oc1ccccc12` here?
**A.** The Potency was inconclusive [activator, single point].

**Q.** With `COc1ccc(-c2noc(CCCC(=O)NCCc3ccccc3)n2)cc1OC` as the compound, how does the Potency read?
**A.** Its Potency is “inactive”.

**Q.** For `Nc1nonc1NN=C1CCCCC1`, which Potency is on record?
**A.** Its Potency is inconclusive [inhibitor, single point].

**Q.** For `C=CCn1c(SCC(=O)c2[nH]c(C)c(C(=O)OC)c2C)nc2scc(-c3ccc(OC)c(OC)c3)c2c1=O`, which Potency is on record?
**A.** The Potency was inconclusive [inhibitor, single point].

**Q.** With `Cc1c(C(=O)N2CCCC2)sc(NC(=O)c2cccc(Cl)c2)c1C#N` as the compound, how does the Potency read?
**A.** The Potency was inconclusive [inhibitor, single point].

**Q.** Which Potency does the source give for `O=C(CC1NCCC[C@H]1O)Cn1cnc2cc(Br)c(Cl)cc2c1=O` (stereo not given in full) here?
**A.** The Potency was “inactive”.

**Q.** Which activity, negative = inhibition does the source give for `CCN(C(=O)COC(=O)c1cncc(Br)c1)C1CCS(=O)(=O)C1` (stereo not given) here?
**A.** Its activity, negative = inhibition is inactive: 0.229% [at 10 µM].

**Q.** For `CCCCN=C1NN=C(c2ccc3c(c2)OCCO3)CS1`, which Potency is on record?
**A.** Its Potency is active: 7.94 µM.

**Q.** With `CCCn1c(SCC(=O)C(C)(C)C)nc2ccccc21` as the compound, how does the Potency read?
**A.** The Potency was inconclusive [inhibitor, single point].

**Q.** Which Potency does the source give for `CN1CCN(C(=O)C2CCCN(S(=O)(=O)c3ccccc3)C2)CC1` (stereo not given) here?
**A.** The Potency was “inactive”.

**Q.** Which Potency does the source give for `CCOC(=O)C(=CNc1ccc2c(c1)nnn2-c1ccc(Cl)cc1)C(=O)OCC` here?
**A.** Its Potency is “inactive”.

**Q.** Which Potency does the source give for `CSc1ccccc1NC(=S)NCc1ccc(Cl)cc1` here?
**A.** Its Potency is active: 11.2 µM.

**Q.** Which Potency does the source give for `COc1ccc(C(=O)O/N=C(\N)c2ccccc2Cl)cc1OC` here?
**A.** Its Potency is inconclusive [inhibitor, partial curve].

**Q.** Which Potency does the source give for `O=c1c2ccccc2c(-c2ccc(Cl)cc2)nn1-c1ccccc1` here?
**A.** Its Potency is inconclusive [inhibitor, single point].

**Q.** For `Cc1noc(C)c1COc1ccc(C(=O)OCC(=O)OC(C)(C)C)cc1`, which Potency is on record?
**A.** The Potency was inconclusive [inhibitor, single point].

**Q.** With `Cc1ccc(NC(=S)Nc2ccccn2)cc1C` as the compound, how does the Potency read?
**A.** The Potency was active: 3.16 µM.

**Q.** With `O=C(CCS(=O)(=O)c1ccccc1)Nc1nncs1` as the compound, how does the Potency read?
**A.** The Potency was “inactive”.

**Q.** Which Potency does the source give for `COc1ccccc1CN1CC[C@@]2(CCCN(C(=O)c3cc(C(F)(F)F)cc(C(F)(F)F)c3)C2)C1` here?
**A.** The Potency was “inactive”.

**Q.** Which Potency does the source give for `Cc1nc2ccccc2c2oc(C(=O)N3CCC(N4CCCCC4)CC3)cc12` here?
**A.** The Potency was “inactive”.

**Q.** Which Potency does the source give for `COc1ccc(CNC(=S)Nc2ccccc2F)cc1` here?
**A.** Its Potency is active: 17.8 µM.

**Q.** For `O=C(NCc1ccc2c(c1)OCO2)c1ccc(Cl)c(S(=O)(=O)NCc2ccccc2)c1`, which Potency is on record?
**A.** Its Potency is “inactive”.

**Q.** Which Potency does the source give for `CCCCCC(=O)NNC1=NCC(Cc2ccccc2)S1` (stereo not given) here?
**A.** The Potency was inconclusive [inhibitor, single point].

**Q.** With `O=C(NCCc1ccccc1)C(=O)NCC1OCCN1S(=O)(=O)c1ccc([N+](=O)[O-])cc1` (stereo not given) as the compound, how does the Potency read?
**A.** The Potency was inconclusive [activator, partial curve].

**Q.** For `Cc1cccc(N(C)Cc2nnc(-c3cccc(Br)c3)o2)c1`, which Potency is on record?
**A.** The Potency was “inactive”.

**Q.** Which Potency does the source give for `NC(=O)CSc1nnc(CSc2ncccn2)n1-c1ccccc1` here?
**A.** The Potency was “inactive”.

**Q.** Which activity, negative = inhibition does the source give for `CSc1cccc(NC(=O)C2CCCN(S(=O)(=O)c3ccc(F)cc3)C2)c1` (stereo not given) here?
**A.** The activity, negative = inhibition was inactive: 2.77% [at 0.365 µM].

**Q.** For `O=C(OCc1nc2scc(-c3ccccc3)c2c(=O)[nH]1)c1cc(Cl)ccc1[N+](=O)[O-]`, which Potency is on record?
**A.** The Potency was inconclusive [inhibitor, single point].

**Q.** With `O=C(O)CCCn1cc(NC(=O)COc2cc(F)ccc2[N+](=O)[O-])cn1` as the compound, how does the Potency read?
**A.** Its Potency is active: 0.501 µM.

**Q.** With `N/C(=N\OC(=O)CC1CCCCC1)c1ccccc1` as the compound, how does the Potency read?
**A.** Its Potency is inconclusive [inhibitor, single point].

**Q.** Which Potency does the source give for `CCC1CCCCN1C(=S)Nc1ccc(OC(F)F)cc1` (stereo not given) here?
**A.** The Potency was inconclusive [inhibitor, single point].
